# From article PMC4336329 (PLoS ONE, 2015)
# The campaign covered roughly 310,000 compounds. About 2,200 (0.71%) showed an effect of 50% or more. The effect is printed as a negative number. The list shows a part of the results.
# Biological target: human ether-à-go-go-related gene (hERG) potassium channel (human, UniProt Q12809)
# Assay: primary screen, population patch clamp on CHO cells stably expressing hERG
# Chain of human ether-à-go-go-related gene (hERG) potassium channel (Q12809 whole entry, looked up): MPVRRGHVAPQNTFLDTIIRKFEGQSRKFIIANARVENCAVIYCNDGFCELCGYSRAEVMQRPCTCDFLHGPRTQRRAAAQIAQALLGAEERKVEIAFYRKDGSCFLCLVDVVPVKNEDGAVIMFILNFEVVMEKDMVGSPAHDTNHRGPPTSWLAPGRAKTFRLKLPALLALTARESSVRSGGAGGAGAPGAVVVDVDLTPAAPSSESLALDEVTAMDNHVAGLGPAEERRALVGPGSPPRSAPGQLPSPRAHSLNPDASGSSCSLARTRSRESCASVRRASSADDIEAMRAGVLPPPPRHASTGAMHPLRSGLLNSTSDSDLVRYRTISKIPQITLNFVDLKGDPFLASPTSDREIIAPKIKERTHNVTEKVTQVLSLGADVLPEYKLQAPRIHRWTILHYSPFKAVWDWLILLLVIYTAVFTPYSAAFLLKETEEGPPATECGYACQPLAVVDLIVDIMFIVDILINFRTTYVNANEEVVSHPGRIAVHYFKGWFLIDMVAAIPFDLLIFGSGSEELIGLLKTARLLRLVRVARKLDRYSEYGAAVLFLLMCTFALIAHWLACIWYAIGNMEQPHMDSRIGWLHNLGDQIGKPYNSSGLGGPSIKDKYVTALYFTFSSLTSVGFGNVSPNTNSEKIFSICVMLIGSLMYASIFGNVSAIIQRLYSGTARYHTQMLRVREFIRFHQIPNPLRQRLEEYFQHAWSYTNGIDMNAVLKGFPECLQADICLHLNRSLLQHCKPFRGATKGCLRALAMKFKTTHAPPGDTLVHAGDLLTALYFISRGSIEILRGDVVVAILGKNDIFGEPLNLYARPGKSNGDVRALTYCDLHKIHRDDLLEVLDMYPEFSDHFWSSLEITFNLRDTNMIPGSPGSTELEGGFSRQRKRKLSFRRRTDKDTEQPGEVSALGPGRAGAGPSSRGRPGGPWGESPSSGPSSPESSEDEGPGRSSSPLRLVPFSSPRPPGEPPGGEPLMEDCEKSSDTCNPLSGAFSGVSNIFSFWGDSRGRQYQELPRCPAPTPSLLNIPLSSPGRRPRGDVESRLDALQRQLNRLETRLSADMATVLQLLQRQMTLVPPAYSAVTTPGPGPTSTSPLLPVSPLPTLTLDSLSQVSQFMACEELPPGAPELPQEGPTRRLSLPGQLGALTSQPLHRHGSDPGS
row,Structure (SMILES),"hERG current change (%, negative = inhibition) at 1uM [%]"
1,Cc1ccc(N2C(=O)CN(Cc3ccccc3)C2=S)cc1C,13
2,COc1ccc(NC(=O)CC23CC4CC(CC(Br)(C4)C2)C3)c(OC)c1,9.43
3,Cc1ccc(C(=O)c2ccccc2C(=O)OCC(=O)NC(C)(C)C)cc1,1.05
4,COCCOC(=O)c1c(C)oc2ccc(OC(=O)N(C)C)cc12,10.4
5,CCOc1ccc(N(CC(=O)Nc2ccccc2OCC)S(=O)(=O)c2c(C)noc2C)cc1,15
6,CCOc1ccc(NS(=O)(=O)c2cc3c4c(c2)CCN4C(=O)CC3)cc1,4.56
7,Cc1nc2ncnn2c(C)c1Cc1ccc(Cl)cc1F,9.45
8,N#Cc1cnn2c1nc(N1CCCCC1)c1ccccc12,7.55
9,CC(=O)N1CCN(c2ccc(NCc3ccc(F)cc3)cc2)CC1,11.5
10,COc1ccc(C2=NCC(=S)Nc3ccc(Cl)cc32)cc1Cl,0.867
11,O=C(CN1CCCCC1)Nc1nc(-c2ccccc2)cs1,7.21
12,CCN(CC)CCNC(=O)c1ccc(NC(=O)c2cc(-c3ccco3)nc3ccccc23)cc1,9.15
13,O=C(c1cc(COc2ccc(F)cc2F)on1)N1CCN(C2CCCC2)C(=O)C1,-1.86
14,CCOc1ccc(NC(=O)CN(c2ccc(C)cc2)S(=O)(=O)c2c(C)nn(C)c2C)cc1,8.67
15,COc1ccc(NC(=O)CCC(=O)c2cccs2)cc1Cl,15.4
16,O=C(CCNC(=O)c1ccc(Cl)cc1)NCC(c1ccco1)N1CCCCC1 (centres unmarked),-10.6
17,COc1ccc(C2=NN(c3ccccc3)C(c3cccs3)C2)cc1 (centres unmarked),7.59
18,Nc1c(C(=O)NCc2ccccc2)c2nc3ccccc3nc2n1CCCN1CCOCC1,0.733
19,CCCCc1nc(Cl)c(C#N)c2c1CCC2,9.36
20,O=C(Nc1ccc(F)cc1)c1cc(S(=O)(=O)Nc2ccc(F)cc2)cs1,-0.55
21,COC(=O)c1ccc(C23CC4(C2)[C@H](CN(Cc2ccc(-c5ccccc5)cc2)[C@@H]4c2ccccc2)C3c2ccccc2)cc1 (some centres unmarked),14.3
22,Cc1ccc(CNC(=O)c2ccc(N(C)S(=O)(=O)c3ccccc3)cc2)cc1,6.26

row,Structure (SMILES),"hERG current change (%, negative = inhibition) at 1uM [%]"
1,COC(=O)[C@@H](NC(=O)NCc1ccccc1F)C(C)C,14.3
2,Cc1cc(C)c(C#N)c(N2CCN(c3ccc(F)cc3)CC2)n1,14.2
3,Nc1c(C(=O)c2ccco2)oc2ccccc12,9.01
4,COc1ccc(CNC(=O)C2CCC(CNS(=O)(=O)c3cccc4nsnc34)CC2)cc1 (centres unmarked),14.6
5,Cc1ccc2c(c1)cc(CN(C(=O)N1CCOCC1)C1CCCC1)c1nnnn12,12.5
6,CCOC(=O)c1sc(NC(=O)c2ccc3nc[nH]c3c2)nc1C,13.4
7,CCCCc1cc(=O)oc2cc(C)cc(O)c12,3.43
8,CCn1nccc1C(=O)NC1=C(C#N)CCC1,17.2
9,O=C(CCCn1nnc2ccccc2c1=O)N[C@H](C(=O)O)c1ccccc1,13.3
10,CC1CCCCN1C(=O)c1cc2ccccc2cc1O (centres unmarked),12.3
11,O=C(Nc1cccc(F)c1)c1ccc(CSc2ccccc2)o1,11.5
12,CC1(C)Cc2cccc(OCC(=O)OCC(=O)Nc3ccc(C(N)=O)cc3)c2O1,-8.66
13,Cc1c(OC(=O)c2ccc([N+](=O)[O-])cc2)c2c(c[n+]1C)COC(C)(C)OC2.[I-],7.45
14,O=C(Nc1ccccn1)c1ccc2c(=O)n3c(nc2c1)CCCCC3,0.0986
15,COc1ccccc1OCCNC(=O)c1cc(C2CC2)nc2c1cnn2C(C)C,1.77
16,Cc1ccc(NC(=O)C2(c3ccccc3)CCCC2)nc1,4.05
17,O=C(Cn1cc(C(F)(F)F)cc(Cl)c1=O)NCC1COc2ccccc2O1 (centres unmarked),11.5
18,Cc1ccc(CNC(=O)c2ccc(N3CCC4(CC3)CC(c3ccccc3)=NO4)c([N+](=O)[O-])c2)cc1,6.09
19,CCOc1ccc2nc(CN3CCN(Cc4ccccc4OCC)C(CCO)C3)ccc2c1 (centres unmarked),-14.9
20,Cc1ccc(C2=NN(CC(=O)NCc3cccnc3)C(=O)CC2)cc1,4.83
21,COc1ccc(C2C(C(=O)O)CCC(=O)N2c2ccc(C)cc2)cc1OC (centres unmarked),8.3
22,O=C(c1ccccc1)C1CCN(C(=O)c2cccs2)CC1,2.32
